Data: PMC4336329 (PLoS ONE, 2015)
About 2,200 (0.71%) of roughly 310,000 compounds showed an effect of 50% or more. Effects have a minus sign here. The list shows a part of the results.

Biological target: human ether-à-go-go-related gene (hERG) potassium channel (human, UniProt Q12809)
Test: primary screen, population patch clamp on CHO cells stably expressing hERG

Chain of human ether-à-go-go-related gene (hERG) potassium channel (Q12809 whole entry, looked up): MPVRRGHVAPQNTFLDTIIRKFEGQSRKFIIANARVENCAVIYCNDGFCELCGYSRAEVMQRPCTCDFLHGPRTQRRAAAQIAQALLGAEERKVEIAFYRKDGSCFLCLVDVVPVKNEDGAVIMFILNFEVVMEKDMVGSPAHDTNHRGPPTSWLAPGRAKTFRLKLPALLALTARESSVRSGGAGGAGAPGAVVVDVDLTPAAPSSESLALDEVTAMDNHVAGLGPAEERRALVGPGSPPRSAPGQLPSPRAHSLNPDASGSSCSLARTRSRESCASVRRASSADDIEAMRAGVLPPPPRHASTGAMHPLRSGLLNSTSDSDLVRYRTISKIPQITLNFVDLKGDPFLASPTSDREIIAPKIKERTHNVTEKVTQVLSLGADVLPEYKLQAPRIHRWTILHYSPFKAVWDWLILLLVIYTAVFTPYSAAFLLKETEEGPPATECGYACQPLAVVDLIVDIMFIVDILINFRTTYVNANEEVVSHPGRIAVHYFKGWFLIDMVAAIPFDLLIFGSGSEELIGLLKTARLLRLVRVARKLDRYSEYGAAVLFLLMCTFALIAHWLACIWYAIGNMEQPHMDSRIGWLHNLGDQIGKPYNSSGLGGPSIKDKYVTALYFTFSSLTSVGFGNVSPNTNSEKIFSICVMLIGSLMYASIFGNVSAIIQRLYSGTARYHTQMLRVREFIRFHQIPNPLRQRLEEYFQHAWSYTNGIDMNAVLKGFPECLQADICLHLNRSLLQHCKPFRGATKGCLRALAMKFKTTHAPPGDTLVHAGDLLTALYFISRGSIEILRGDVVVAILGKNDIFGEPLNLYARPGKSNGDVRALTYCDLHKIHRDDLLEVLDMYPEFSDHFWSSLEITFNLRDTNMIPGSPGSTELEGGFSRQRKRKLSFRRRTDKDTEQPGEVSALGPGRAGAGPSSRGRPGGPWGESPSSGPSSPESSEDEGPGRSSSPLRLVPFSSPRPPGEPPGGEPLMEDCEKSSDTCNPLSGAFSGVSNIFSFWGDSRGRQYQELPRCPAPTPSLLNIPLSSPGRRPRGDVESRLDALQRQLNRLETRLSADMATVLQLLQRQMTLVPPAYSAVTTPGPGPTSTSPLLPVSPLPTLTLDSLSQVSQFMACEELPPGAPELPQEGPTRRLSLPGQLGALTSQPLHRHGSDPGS

Row | Structure (SMILES) | hERG current change (%, negative = inhibition) at 1uM [%]
1 | CSCCC(NS(=O)(=O)c1ccccc1F)C(=O)NCc1cccs1 (stereo not shown) | 12.8
2 | CCNC(=S)NNC(=O)c1cccnc1 | 15.4
3 | O=C(NC1CCCCC1)c1ccc(S(=O)(=O)N2CCOCC2)cc1 | 8.06
4 | Cl.Cn1cccc1CNCCc1ccccc1 | 7.61
5 | OCc1ccc(N=Nc2ccccc2)cc1 | 4.74
6 | Cc1ccc(CN(C(=O)c2csnn2)C(C(=O)NC2CCCC2)c2cccnc2)cc1 (stereo not shown) | 7.72
7 | Cc1cccc(NC(=S)NCCCN2CCOCC2)c1 | -1.73
8 | COc1ccc(-n2c(C)nc3c(cnn3-c3ccc(C)cc3)c2=O)cc1 | 4.18
9 | CC(=O)Oc1cccc(N2C(=O)C3C4C=CC(CC4)C3C2=O)c1 (stereo not shown) | 13.1
10 | CN(C)S(=O)(=O)c1ccc(C(=O)Nc2ccc(CN3CCCC3)cc2)cc1 | -1.22
11 | COc1ccccc1/C=C/C(=O)NCCC1=CCCCC1 | 12.3
12 | Cc1cc(C)n2[nH]c(=O)c(N=Nc3cccc(C(F)(F)F)c3)c2n1 | -4.56
13 | Cc1ccc(NC(=O)CN2CCOCC2)cc1 | 13.3
14 | CCc1cc2cc3c(cc2nc1SCC(=O)Nc1cc(C)on1)OCO3 | 12.8
15 | COc1ccc2oc(=O)c(-c3nnc(NCc4ccco4)s3)cc2c1 | 9.23
16 | CCc1ccc(CN(C)C(=O)c2cc(COc3cccc(C(F)(F)F)c3)on2)nc1 | 6.84
17 | CCOC(=O)C1(C)/C(=N/Nc2ccccc2)C(=O)C(=O)N1c1ccccc1 (stereo not shown) | -3.13
18 | COc1ccc(CCNC(=O)CN2CCC(C(N)=O)CC2)cc1 | 14.2
19 | COc1ccc(NC(=O)C2CCN(S(=O)(=O)c3cccc4nonc34)CC2)cc1OC | 9.2
20 | CC(C)(C)NC(=O)C(c1cccs1)N(Cc1cccs1)C(=O)c1ccc(CN2CCOCC2)o1 (stereo not shown) | 12.9
21 | CCCCn1c(=O)c(C(=O)Nc2ccccc2Cl)c(O)c2ccccc21 | 13.4
22 | Cc1cc(C(=O)Nc2ccc(Br)cc2)c2ccccc2n1 | 15.3
23 | COc1ccc(CCNC(=O)COc2ccc([N+](=O)[O-])cc2)cc1 | 11.2

Row | Structure (SMILES) | hERG current change (%, negative = inhibition) at 1uM [%]
24 | COc1ccc(S(=O)(=O)N2CCN(C(=O)c3ccco3)CC2)cc1C(C)(C)C | 13.1
25 | COCCCN=C1NN=C(c2cc(C)n(Cc3ccccc3Cl)c2C)CS1 | 7.62
26 | O=C(N/N=C/c1ccncc1)c1ccccc1[N+](=O)[O-] | 8.18
27 | C/C(=N\O)C(=O)OC1CC(C)CCC1C(C)C (stereo not shown) | -0.922
28 | CC(C)NC(=O)NC(=O)CSc1nnc(C(F)(F)F)n1C | 10.2
29 | CCOc1ccccc1NC(=O)CCNC(=O)c1ccco1 | 14.5
30 | CCN(Cc1ccncc1)C(=S)Nc1ccc(Cl)cc1 | 9.9
31 | Cc1ccc(S(=O)(=O)NN2C(=O)/C(=C/c3cccnc3)SC2=S)cc1 | 8.11
32 | O=S(=O)(c1ccc(Cl)cc1)N1CCN=C1SCc1cccnc1 | 7.2
33 | NC(=O)C1CCCN(C(=S)Nc2cccc3ccccc23)C1 (stereo not shown) | 0.957
34 | C#CC[N+](C)(C)CCN1C(=O)C2C(c3ccccc3)C=CC(c3ccccc3)C2C1=O.[Br-] (stereo not shown) | 9.67
35 | Cc1noc(C)c1C(=O)NCCCc1ccccc1 | 13
36 | CN(C)S(=O)(=O)c1cccc(NC(=S)N/N=C/C(=O)c2ccccc2)c1 | -2.1
37 | COc1ccc(Cl)cc1S(=O)(=O)Oc1ccc(NC(C)=O)cc1 | -58.8
38 | COc1ccc(NC(=O)C#Cc2ccccc2)cc1 | 14.6
39 | COC(=O)CN1C(=O)c2cccc3cccc1c23 | 3.72
40 | O=C(O)c1c2c(nc3ccccc13)/C(=C/c1cccc([N+](=O)[O-])c1)CCC2 | 15.8
41 | C=CCn1c(SCc2cccc(F)c2)nc2cc(C(=O)N3CCC(C(N)=O)CC3)ccc2c1=O | 4.53
42 | O=C(COC(=O)Cc1ccc(S(=O)(=O)N2CCOCC2)s1)Nc1ccc2c(c1)OCO2 | 15.1
43 | Cc1ccc2nc(N(CCCN(C)C)C(=O)c3ccco3)sc2c1.Cl | -9.63
44 | O=C(COc1ccccc1)N1CCN(C(=O)COc2ccccc2)CC1 | -1.64
45 | [N-]=[N+]=CC(=O)C(O)(c1ccccc1)C(Cl)c1ccccc1 (stereo not shown) | 15.4
46 | COc1ccc(C(=O)C23CN4CN(CN(C4)C2)C3)cc1 | 8.66
